# According to the supplement of paper PMC8728848:
# The list shows a part of the results.
# B1: EEA (Euonymus europaeus) (protein)
# chain: MASTIIATGPTYRVYCRAAPNYNMIVGKGVAFLAPIDETNELQYWYKDDTYSYIKDEAGLPAFSLVNKATGLTLKHSNHHPVPVKLVTYNPNVVDESVLWSQADDRGDGYSAIRSLTNPASHLEAAPLNDWSYNGAIIMGGVWIDAYNQQWKIEPHTG
# Tests used:
# Test in all cases: glycan array binding signal (z-score within array); higher = stronger binding
# Settings in all cases: glycan notation: IUPAC condensed, linker removed
# [1] = target: Gal(a1-3)Gal(b1-4)GlcNAc(b1-6)GalNAc
# How it was run: (§1)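 Negative Z-scores can be read as non-binding. The Z-score is calculated within each array and then averaged across arrays of one protein sequence at different concentrations or buffers and across linkers. Arrays, 3228 in all, were curated from the Consortium for Functional Glycomics database and kept only where the protein sequence was available.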
# [2] = target: Gal(a1-3)Gal(b1-4)[Fuc(a1-3)]GalNAc
# How it was run: as §1
# [3] = target: Gal(a1-3)Gal(b1-4)[Fuc(a1-3)]GlcNAc
# How it was run: as §1
# [4] = target: Gal(a1-3)Gal(b1-4)[Fuc(a1-3)]GlcNAc(b1-2)Man(a1-3)[Gal(a1-3)Gal(b1-4)[Fuc(a1-3)]GlcNAc(b1-2)Man(a1-6)]Man(b1-4)GlcNAc(b1-4)GlcNAc
# How it was run: as §1
# [5] = target: Gal(a1-3)GalNAc
# How it was run: as §1
# [6] = target: Gal(a1-3)GlcNAc
# How it was run: as §1
# [7] = target: Gal(a1-3)[Gal(a1-4)]Gal(b1-4)GlcNAc
# How it was run: as §1
# [8] = target: Gal(a1-4)Gal(b1-3)GlcNAc(b1-2)Man(a1-3)[Gal(a1-4)Gal(b1-3)GlcNAc(b1-2)Man(a1-6)]Man(b1-4)GlcNAc(b1-4)GlcNAc
# How it was run: as §1
# [9] = target: Gal(a1-4)Gal(b1-4)Gal
# How it was run: as §1
# [10] = target: Gal(a1-4)Gal(b1-4)GalNAc
# How it was run: as §1
# [11] = target: Gal(a1-4)Gal(b1-4)Glc
# How it was run: as §1
# [12] = target: Gal(a1-4)Gal(b1-4)GlcNAc
# How it was run: as §1
# [13] = target: Gal(a1-4)Gal(b1-4)GlcNAc(b1-2)Man(a1-3)[Gal(a1-4)Gal(b1-4)GlcNAc(b1-2)Man(a1-6)]Man(b1-4)GlcNAc(b1-4)GlcNAc
# How it was run: as §1
# [14] = target: Gal(a1-4)Gal(b1-4)GlcNAc(b1-3)Gal(b1-4)Glc
# How it was run: as §1
# [15] = target: Gal(a1-4)GlcNAc
# How it was run: as §1
# [16] = target: Gal(a1-6)Glc
# How it was run: as §1
# [17] = target: Gal(b1-2)Gal
# How it was run: as §1
# [18] = target: Gal(b1-3)Gal
# How it was run: as §1
# [19] = target: Gal(b1-3)Gal(b1-4)GlcNAc
# How it was run: as §1
# [20] = target: Gal(b1-3)GalNAc
# How it was run: as §1
# [21] = target: Gal(b1-3)GalNAc(a1-3)[Fuc(a1-2)]Gal(b1-4)Glc
# How it was run: as §1
# [22] = target: Gal(b1-3)GalNAc(a1-3)[Fuc(a1-2)]Gal(b1-4)GlcNAc
# How it was run: as §1
# [23] = target: Gal(b1-3)GalNAc(b1-3)Gal
# How it was run: as §1
# [24] = target: Gal(b1-3)GalNAc(b1-3)Gal(a1-4)Gal(b1-4)Glc
# How it was run: as §1
# [25] = target: Gal(b1-3)GalNAc(b1-3)Gal(b1-4)Glc
# How it was run: as §1
# [26] = target: Gal(b1-3)GalNAc(b1-3)Gal(b1-4)GlcNAc
# How it was run: as §1
# [27] = target: Gal(b1-3)GalNAc(b1-4)Gal(b1-4)Glc
# How it was run: as §1
# [28] = target: Gal(b1-3)GalNAc(b1-4)[Neu5Ac(a2-3)]Gal(b1-4)Glc
# How it was run: as §1
# [29] = target: Gal(b1-3)GlcNAc
# How it was run: as §1
# [30] = target: Gal(b1-3)GlcNAc(a1-3)Gal(b1-4)GlcNAc
# How it was run: as §1
# [31] = target: Gal(b1-3)GlcNAc(a1-6)Gal(b1-4)GlcNAc
# How it was run: as §1
# [32] = target: Gal(b1-3)GlcNAc(b1-2)Man
# How it was run: as §1
# [33] = target: Gal(b1-3)GlcNAc(b1-2)Man(a1-3)[Gal(b1-3)GlcNAc(b1-2)Man(a1-6)]Man(b1-4)GlcNAc(b1-4)GlcNAc
# How it was run: as §1
# [34] = target: Gal(b1-3)GlcNAc(b1-2)Man(a1-3)[Gal(b1-3)GlcNAc(b1-2)Man(a1-6)]Man(b1-4)GlcNAc(b1-4)[Fuc(a1-6)]GlcNAc
# How it was run: as §1
# [35] = target: Gal(b1-3)GlcNAc(b1-2)Man(a1-3)[GlcNAc(b1-4)][Gal(b1-3)GlcNAc(b1-2)Man(a1-6)]Man(b1-4)GlcNAc(b1-4)GlcNAc
# How it was run: as §1
# [36] = target: Gal(b1-3)GlcNAc(b1-2)[Gal(b1-3)GlcNAc(b1-6)]Man(a1-6)[Gal(b1-3)GlcNAc(b1-2)Man(a1-3)]Man(b1-4)GlcNAc(b1-4)GlcNAc
# How it was run: as §1
# [37] = target: Gal(b1-3)GlcNAc(b1-3)Gal(b1-3)GlcNAc
# How it was run: as §1
# [38] = target: Gal(b1-3)GlcNAc(b1-3)Gal(b1-4)Glc
# How it was run: as §1
# [39] = target: Gal(b1-3)GlcNAc(b1-3)Gal(b1-4)GlcNAc
# How it was run: as §1
# [40] = target: Gal(b1-3)GlcNAc(b1-3)Gal(b1-4)GlcNAc(b1-2)Man(a1-3)[Gal(b1-3)GlcNAc(b1-3)Gal(b1-4)GlcNAc(b1-2)Man(a1-6)]Man(b1-4)GlcNAc(b1-4)GlcNAc
# How it was run: as §1
# [41] = target: Gal(b1-3)GlcNAc(b1-3)Gal(b1-4)GlcNAc(b1-2)[Gal(b1-3)GlcNAc(b1-3)Gal(b1-4)GlcNAc(b1-6)]Man(a1-6)[Gal(b1-3)GlcNAc(b1-3)Gal(b1-4)GlcNAc(b1-2)Man(a1-3)]Man(b1-4)GlcNAc(b1-4)[Fuc(a1-6)]GlcNAc
# How it was run: as §1
# [42] = target: Gal(b1-3)GlcNAc(b1-3)Gal(b1-4)GlcNAc(b1-3)Gal(b1-4)GlcNAc(b1-2)[Gal(b1-3)GlcNAc(b1-3)Gal(b1-4)GlcNAc(b1-3)Gal(b1-4)GlcNAc(b1-6)]Man(a1-6)[Gal(b1-3)GlcNAc(b1-3)Gal(b1-4)GlcNAc(b1-3)Gal(b1-4)GlcNAc(b1-2)Man(a1-3)]Man(b1-4)GlcNAc(b1-4)[Fuc(a1-6)]GlcNAc
# How it was run: as §1
# [43] = target: Gal(b1-3)GlcNAc(b1-3)Gal(b1-4)GlcNAc(b1-6)[Gal(b1-3)GlcNAc(b1-3)]Gal(b1-4)Glc
# How it was run: as §1
# [44] = target: Gal(b1-3)GlcNAc(b1-3)Gal(b1-4)[Fuc(a1-3)]GlcNAc
# How it was run: as §1
# [45] = target: Gal(b1-3)GlcNAc(b1-3)Gal(b1-4)[Fuc(a1-3)]GlcNAc(b1-6)[Gal(b1-3)GlcNAc(b1-3)]Gal(b1-4)Glc
# How it was run: as §1
binder,measurement,setting,value
B1,glycan array binding signal (z-score),[1],-0.194
same,glycan array binding signal (z-score),[2],1.68
same,glycan array binding signal (z-score),[3],-0.184
same,glycan array binding signal (z-score),[4],0.198
same,glycan array binding signal (z-score),[5],-0.092
same,glycan array binding signal (z-score),[6],-0.27
same,glycan array binding signal (z-score),[7],-0.063
same,glycan array binding signal (z-score),[8],-0.238
same,glycan array binding signal (z-score),[9],-0.268
same,glycan array binding signal (z-score),[10],-0.27
same,glycan array binding signal (z-score),[11],-0.143
same,glycan array binding signal (z-score),[12],-0.164
same,glycan array binding signal (z-score),[13],-0.114
same,glycan array binding signal (z-score),[14],-0.19
same,glycan array binding signal (z-score),[15],-0.183
same,glycan array binding signal (z-score),[16],-0.205
same,glycan array binding signal (z-score),[17],-0.172
same,glycan array binding signal (z-score),[18],-0.203
same,glycan array binding signal (z-score),[19],-0.16
same,glycan array binding signal (z-score),[20],0.01
same,glycan array binding signal (z-score),[21],-0.228
same,glycan array binding signal (z-score),[22],-0.142
same,glycan array binding signal (z-score),[23],-0.189
same,glycan array binding signal (z-score),[24],-0.24
same,glycan array binding signal (z-score),[25],-0.329
same,glycan array binding signal (z-score),[26],-0.501
same,glycan array binding signal (z-score),[27],-0.213
same,glycan array binding signal (z-score),[28],-0.241
same,glycan array binding signal (z-score),[29],-0.193
same,glycan array binding signal (z-score),[30],-0.189
same,glycan array binding signal (z-score),[31],-0.083
same,glycan array binding signal (z-score),[32],-0.143
same,glycan array binding signal (z-score),[33],-0.157
same,glycan array binding signal (z-score),[34],-0.194
same,glycan array binding signal (z-score),[35],-0.234
same,glycan array binding signal (z-score),[36],-0.219
same,glycan array binding signal (z-score),[37],-0.138
same,glycan array binding signal (z-score),[38],-0.273
same,glycan array binding signal (z-score),[39],-0.237
same,glycan array binding signal (z-score),[40],-0.243
same,glycan array binding signal (z-score),[41],0.041
same,glycan array binding signal (z-score),[42],-0.049
same,glycan array binding signal (z-score),[43],-0.258
same,glycan array binding signal (z-score),[44],-0.197
same,glycan array binding signal (z-score),[45],-0.274
